Test results reported in PubChem BioAssay AID1745853 (National Center for Advancing Translational Sciences (NCATS), 2022).
The list shows a part of the results. The main result of the screen is listed elsewhere. These columns were measured beside it and carry no call.

Legend:
Experiment in all cases: Primary Screen for Target Class Profiling of Small Molecule Inhibitors of Methyltransferases
[1] = molecular target: Glycine N-methyltransferase (Homo sapiens) (UniProt Q14749); settings: purified enzyme, MTase-Glo SAH luminescence; measured here: GNMT inhibition; at 40 µM; stronger effect = lower value
Summary of the method: (§1)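 Each enzyme was assayed with SAM and its substrate. SAH formation detected by MTase-Glo luminescence; single-point 40 uM screen[…].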

[2] = molecular target: Guanidinoacetate N-methyltransferase (Homo sapiens) (UniProt Q14353); settings: purified enzyme, MTase-Glo SAH luminescence; measured here: GAMT inhibition; at 40 µM; stronger effect = lower value
Summary of the method: as §1

[3] = molecular target: Histamine N-methyltransferase (Homo sapiens) (UniProt P50135); settings: purified enzyme, MTase-Glo SAH luminescence; measured here: HNMT inhibition; at 40 µM; stronger effect = lower value
Summary of the method: as §1

[4] = molecular target: Nicotinamide N-methyltransferase (Homo sapiens) (UniProt P40261); settings: purified enzyme, MTase-Glo SAH luminescence; measured here: NNMT inhibition; at 40 µM; stronger effect = lower value
Summary of the method: as §1

[5] = molecular target: Phenylethanolamine N-methyltransferase (Homo sapiens) (UniProt P11086); settings: purified enzyme, MTase-Glo SAH luminescence; measured here: PNMT inhibition; at 40 µM; stronger effect = lower value
Summary of the method: as §1
% is set by controls: 0 for no effect and ±100 for the full control effect.

Row | SMILES | activity change, negative = inhibition [1] [%] | activity change, negative = inhibition [2] [%] | activity change, negative = inhibition [3] [%] | activity change, negative = inhibition [4] [%] | activity change, negative = inhibition [5] [%]
1 | CC1(C(=O)NC2CCCC2)Cn2c(ccc2-c2ccco2)C(=O)N1CCCN1CCCCC1 (configuration not stated) | 3.77 | 0.642 | -3.04 | 9.17 | 1.96
2 | CN(C)CCNC(=O)c1cc2n(n1)CC(C)(C(=O)NCc1ccccc1)N(C)C2=O (configuration not stated) | 4.37 | 3.91 | 3.65 | -2.14 | -1.67
3 | CCOC(=O)C(CCc1ccccc1)NC1CSC(c2cccs2)CN(CC(=O)O)C1=O (configuration not stated) | -12.3 |  | 3.83 |  | 
4 | CCCCCCN(CCCCCC)C(=O)Cc1c(-c2ccc(F)cc2)[nH]c2ccccc12 | -14.2 | 5.01 | -0.505 | -9.94 | 1.12
5 | CCN(CC)CCNC(=O)c1ccc(NC(C)=O)cc1 | 7.81 | 6.62 | 8.48 | -10.4 | 2.25
6 | O=C(CCn1ccc2cc(S(=O)(=O)N3CCCCC3)ccc21)NCc1ccc(F)cc1 | 6.49 | 5.26 | 7.33 | 4.98 | 2.23
7 | N[C@@H](Cc1cnc[nH]1)C(=O)O | 8.99 | 14 | 13.5 | -3.17 | 2.78
8 | CC1(C(=O)NC2CCCCCC2)Cn2c(nc3ccccc32)C(=O)N1C1CCCCCC1 (configuration not stated) | -3.45 | 0 | 2.79 | 4.88 | -1.02
9 | CN(Cc1cccc(OC(F)(F)F)c1)C(=O)C1(c2ccc(Cl)cc2)CCOCC1 | -7.5 | -5.66 | -4.77 | -20.2 | -5.37
10 | Cc1ccc(CCN2C(=O)c3cc4ccccc4n3CC2(C)C(=O)NCCC(C)C)cc1 (configuration not stated) | 9.05 | 4.41 | 9.65 | 10.1 | 3.29
11 | CN1CC2(CCN(C(=O)c3cccn3C)CC2)CC(c2ccccc2)C1=O (configuration not stated) | -4.35 | -3.87 | -1.42 | -3.9 | 12.7
12 | CCOc1ccc(CCN2C(=O)c3ccc(-c4ccccc4)n3CC2(C)C(=O)NC2CCCC2)cc1 (configuration not stated) | 4.07 | 0.258 | 7.4 | 5.55 | 3.65
13 | O=C(c1n[nH]c2ccccc12)N1CCC(Cc2nc(-c3ccncc3)n[nH]2)CC1 | -8.34 | -5.53 | -1.03 | -12.7 | 5.33
14 | CC(C)Cn1c(=O)c2ccc(C(=O)NC3CCCC3)cc2n2c(=O)n(CC(=O)c3ccccc3)nc12 | 3.58 | 0 | 5.88 | 4.14 | 4.37
15 | CNC(=O)c1cccc(-c2cnc(Nc3ccc(Cl)cn3)c3c2CCO3)c1 | -15.1 | -11.8 | -10.7 | -19.7 | -0.449
16 | Cc1ccccc1S(=O)(=O)N1CCCC2(C1)Nc1cccnc1NC2=NC1CCCC1 (configuration not stated) | -5.05 | -4.59 | -8.24 | -33.6 | -3.46
17 | CC(NC(=O)CN1C(=O)NC2(CCS(=O)(=O)CC2)C1=O)c1ccccc1 (configuration not stated) | -0.012 | -1.01 | 1.28 | -0.448 | 2.96
18 | C[C@@H]1CN(c2ccc(C(=O)N3CCC(N4CCOCC4)CC3)cn2)C[C@H](C)O1 | -2.28 | -7.07 | -0.76 | -3.17 | 1.92
